This is one part of the list.

The assay has as its system HSkMC (human skeletal muscle cells). Briefly: cytotoxicity call (relative viability < 0.9). The conditions noted are these: 10 µM.
`C[C@H](CO)N1C[C@H](C)[C@@H](CN(C)S(C)(=O)=O)Oc2c(cccc2N(C)C)C1=O`: the cytotoxicity call is “inactive”.
In the case of `O=C1N[C@@H](Cc2c[nH]c3ccccc23)COC(=O)[C@H](Cc2ccc(F)cc2)CCC=CC[C@H]1CC(=O)N(CCO)Cc1ccccc1`, the cytotoxicity call was “inactive”.
Then `CC(C)NC(=O)NCC[C@H]1CC[C@@H](NC(=O)CN(C)C)[C@@H](CO)O1`, with “inactive”.
In the case of `FCOC(C(F)(F)F)C(F)(F)F`, the cytotoxicity call is “inactive”.
`CCS(=O)(=O)Nc1ccc2c(c1)C(=O)N(C)[C@H]1CC[C@@H](CC(=O)NCCOC)O[C@H]1CO2`: the cytotoxicity call was “inactive”.
Then `CC(O)(CN)CCc1ccccc1` (stereo not drawn), with “inactive”.
Next, `O=C(O)CN1C(=O)c2cccc3cccc(c23)C1=O`: “inactive”.
Turning to `O=C(C[C@@H]1CC=CCC[C@@H](Cc2ccc(F)cc2)C(=O)OC[C@H](Cc2ccccc2)NC1=O)NCCO`, the cytotoxicity call is “inactive”.
Next, `C[C@@H]1CN([C@H](C)CO)C(=O)c2cc(NC(=O)C3CCCCC3)ccc2O[C@@H](C)CCCCO[C@@H]1CN(C)S(=O)(=O)c1ccccc1`: “inactive”; `C[C@@H]1CN([C@H](C)CO)C(=O)c2cc(NC(=O)Cc3ccccc3)ccc2O[C@@H]1CN(C)Cc1ccc(Oc2ccccc2)cc1`: “inactive”; `C[C@H](CO)N1C[C@H](C)[C@@H](CN(C)CC2CC2)OCCCC[C@H](C)Oc2ccc(NC(=O)Nc3ccc(F)cc3)cc2C1=O`: “inactive”.
For the compound `CCCCCCCCCCCCCCCCOc1nc2ccc(C)cc2c(=O)o1`, the cytotoxicity call is “inactive”.
As for `C[C@@H]1CN([C@@H](C)CO)C(=O)c2cccc(NC(=O)c3ccc(-c4nccs4)cc3)c2O[C@@H]1CN(C)C(=O)Nc1ccc2c(c1)OCO2`, the cytotoxicity call is “inactive”.
Next, `COc1ccc(S(=O)(=O)Nc2ccc3c(c2)CC(=O)N([C@H](C)CO)C[C@H](C)[C@H](CN(C)Cc2ccc(C(=O)O)cc2)O3)cc1`: “inactive”.
For `C[C@@H]1CN([C@H](C)CO)C(=O)c2cccc(NC(=O)Nc3cccc4ccccc34)c2O[C@@H]1CN(C)Cc1ccncc1`, the cytotoxicity call is “inactive”.
Regarding `C[C@H]1CN([C@@H](C)CO)S(=O)(=O)c2ccc(-c3cccc(C#N)c3)cc2O[C@@H]1CN(C)C(=O)c1cccnc1`, the cytotoxicity call was “inactive”.
Take `COC(=O)[C@H]1[C@H](CO)[C@H]2Cn3c(ccc(-c4ccccc4)c3=O)[C@H]2N1S(C)(=O)=O`: the cytotoxicity call is “inactive”.
Next, `C[C@@H](O)CN1C(=S)S[C@@H]2CS(=O)(=O)C[C@@H]21`: “inactive”; `Cc1ccc(OCc2ccc(Cl)cc2)c(C(C)(C)C)c1`: “inactive”.
For the compound `CCCCC(CC)COC(=O)CC(C(=O)OCC(CC)CCCC)S(=O)(=O)[O-].[Na+]` (stereo not drawn), the cytotoxicity call was “inactive”.
Then `COc1c(-c2ccccc2)oc2c(ccc3ccoc32)c1=O`, with “inactive”.
On to `C[C@@H]1CCCCO[C@@H](CN(C)C(=O)Nc2cccc3ccccc23)[C@H](C)CN([C@H](C)CO)C(=O)c2cc(NC(=O)Cc3ccccc3)ccc2O1`, for which the cytotoxicity call was “inactive”.
Then `COc1ccc(NC(=O)Nc2ccc3c(c2)C(=O)N([C@H](C)CO)C[C@@H](C)[C@H](CN(C)Cc2ccccc2)OCCCC[C@@H](C)O3)cc1`, with “inactive”; and `C[C@H]1CN([C@@H](C)CO)C(=O)Cc2cc(NC(=O)C3CCCCC3)ccc2O[C@H]1CN(C)C(=O)Nc1ccc(C(F)(F)F)cc1`, with “inactive”.
Next, `CNC[C@@H]1OCCCC[C@H](C)Oc2ccc(NC(=O)Nc3ccc(C(F)(F)F)cc3)cc2C(=O)N([C@@H](C)CO)C[C@H]1C`: “inactive”.
With `Cc1noc(C)c1NC(=O)N(C)C[C@H]1Oc2c(NS(=O)(=O)c3ccccc3)cccc2C(=O)N([C@@H](C)CO)C[C@@H]1C`, the cytotoxicity call was “inactive”.
Take `C[C@@H]1CN([C@H](C)CO)S(=O)(=O)c2ccc(C#Cc3cccc(F)c3)cc2O[C@@H]1CN(C)S(=O)(=O)c1ccccc1F`: the cytotoxicity call is “inactive”.
As to `Cc1noc(C)c1NC(=O)Nc1ccc2c(c1)C(=O)N([C@H](C)CO)C[C@H](C)[C@@H](CN(C)CC1CC1)OCCCC[C@@H](C)O2`, the cytotoxicity call was “inactive”.
Then `C=CC(=O)N[C@@H]1CN(c2nc(Nc3cn(C)nc3OC)c3ncn(C)c3n2)C[C@H]1F`, with “inactive”.
`C[C@@H]1CC=CC[C@@H](c2cccc(Cl)c2)NC(=O)[C@H](Cc2ccccc2)N(C)C(=O)c2ccccc2O1`: the cytotoxicity call is “inactive”.
Regarding `CC(C)N1C[C@H](C)[C@@H](CN(C)Cc2ccc(Oc3ccccc3)cc2)Oc2c(NC(=O)c3ccccc3)cccc2C1=O`, the cytotoxicity call was “inactive”.
Turning to `COCC(=O)Nc1ccc2c(c1)C(=O)N(C)C[C@@H](OC)[C@H](C)CN(Cc1ccccc1F)[C@H](C)CO2`, the cytotoxicity call is “inactive”.
Consider `COc1ccc(NC(=O)Nc2ccc3c(c2)C(=O)N([C@H](C)CO)C[C@H](C)[C@H](CN(C)Cc2ccc(Oc4ccccc4)cc2)O3)cc1`, for which the cytotoxicity call is “active”.

Source of the values: the antibiotic and cytotoxicity screens of Wong et al. (2023).
